In general, EC50 refers to the concentration at which the effect is half-maximal. Read a low EC50 as an effect from little substance.

B1: P1AH1062 4-1BB arm (antibody)
chain: EVQLLESGGGLVQPGGSLRLSCAASGFTFSDYGLSWVRQAPGKGLEWVSLIDSSGSSTFYADSVKGRFTISRDNSKNTLYLQMNSLRAEDTAVYYCAKEHGLFDSWGQGTLVTVSS[in this place human IgG1 constant region]GSGSGSGSGSGSGSGSGSQSVLTQPPSASGTPGRRVTISCSGSSSNIGNNYVTWYQQLPGTAPKLLIYADSHRPSGVPDRFSGSKSGTSASLAISGLRSEDEADYYCATWDYSLSGYVFGCGTKLTVLGGGGSGGGGSGGGGSGGGGSEVQLLESGGGLVQPGGSLRLSCAASGFTFSSYDMSWVRQAPGKCLEWVSWISYSGGSIYYADSVKGRFTISRDNSKNTLYLQMNSLRAEDTAVYYCARDAQRNSMREFDYWGQGTLVTVSS
B2: P1AG7400 4-1BBL arm (protein)
chain 1: REGPELSPDDPAGLLDLRQGMFAQLVAQNVLLIDGPLSWYSDPGLAGVSLTGGLSYKEDTKELVVAKAGVYYVFFQLELRRVVAGEGSGSVSLALHLQPLRSAAGAAALALTVDLPPASSEARNSAFGFQGRLLHLSAGQRLGVHLHTEARARHAWQLTQGATVLGLFRVTPEIPAGLGGGGSGGGGREGPELSPDDPAGLLDLRQGMFAQLVAQNVLLIDGPLSWYSDPGLAGVSLTGGLSYKEDTKELVVAKAGVYYVFFQLELRRVVAGEGSGSVSLALHLQPLRSAAGAAALALTVDLPPASSEARNSAFGFQGRLLHLSAGQRLGVHLHTEARARHAWQLTQGATVLGLFRVTPEIPAGLGGGGSGGGGRTVAAPSVFIFPPSDEQLKSGTASVVCLLNNFYPREAKVQWKVDNALQSGNSQESVTEQDSKDSTYSLSSTLTLSKADYEKHKVYACEVTHQGLSSPVTKSFNRGE[in this place human IgG1 Fc with changes]
chain 2: REGPELSPDDPAGLLDLRQGMFAQLVAQNVLLIDGPLSWYSDPGLAGVSLTGGLSYKEDTKELVVAKAGVYYVFFQLELRRVVAGEGSGSVSLALHLQPLRSAAGAAALALTVDLPPASSEARNSAFGFQGRLLHLSAGQRLGVHLHTEARARHAWQLTQGATVLGLFRVTPEIPAGLGGGGSGGGGASTKGPSVFPLAPSSKSTSGGTAALGCLVKDYFPEPVTVSWNSGALTSGVHTFPAVLQSSGLYSLSSVVTVPSSSLGTQTYICNVNHKPSNTKVDKKVEPKSC
B3: P1AG7409 4-1BBL arm (protein)
chain 1: REGPELSPDDPAGLLDLRQGMFAQLVAQNVLLIDGPLSWYSDPGLAGVSLTGGLSYKEDTKELVVAKAGVYYVFFQLELRRVVAGEGSGSVSLALHLQPLRSAAGAAALALTVDLPPASSEARNSAFGFQGRLLHLSAGQRLGVHLHTEARARHAWQLTQGATVLGLFRVTPEIPAGLGGGGSGGGGREGPELSPDDPAGLLDLRQGMFAQLVAQNVLLIDGPLSWYSDPGLAGVSLTGGLSYKEDTKELVVAKAGVYYVFFQLELRRVVAGEGSGSVSLALHLQPLRSAAGAAALALTVDLPPASSEARNSAFGFQGRLLHLSAGQRLGVHLHTEARARHAWQLTQGATVLGLFRVTPEIPAGLGGGGSGGGGRTVAAPSVFIFPPSDEQLKSGTASVVCLLNNFYPREAKVQWKVDNALQSGNSQESVTEQDSKDSTYSLSSTLTLSKADYEKHKVYACEVTHQGLSSPVTKSFNRGE[in this place human IgG1 Fc with changes]
chain 2: B2 chain 2
B4: P1AG7422 4-1BBL arm (protein)
chain 1: REGPELSPDDPAGLLDLRQGMFAQLVAQNVLLIDGPLSWYSDPGLAGVSLTGGLSYKEDTKELVVAKAGVYYVFFQLELRRVVAGEGSGSVSLALHLQPLRSAAGAAALALTVDLPPASSEARNSAFGFQGRLLHLSAGQRLGVHLHTEARARHAWQLTQGATVLGLFRVTPEIPAGLGGGGSGGGGREGPELSPDDPAGLLDLRQGMFAQLVAQNVLLIDGPLSWYSDPGLAGVSLTGGLSYKEDTKELVVAKAGVYYVFFQLELRRVVAGEGSGSVSLALHLQPLRSAAGAAALALTVDLPPASSEARNSAFGFQGRLLHLSAGQRLGVHLHTEARARHAWQLTQGATVLGLFRVTPEIPAGLGGGGSGGGGRTVAAPSVFIFPPSDEQLKSGTASVVCLLNNFYPREAKVQWKVDNALQSGNSQESVTEQDSKDSTYSLSSTLTLSKADYEKHKVYACEVTHQGLSSPVTKSFNRGE[in this place human IgG1 Fc with changes]
chain 2: B2 chain 2
B5: P1AG7397 4-1BBL arm (protein)
chain 1: REGPELSPDDPAGLLDLRQGMFAQLVAQNVLLIDGPLSWYSDPGLAGVSLTGGLSYKEDTKELVVAKAGVYYVFFQLELRRVVAGEGSGSVSLALHLQPLRSAAGAAALALTVDLPPASSEARNSAFGFQGRLLHLSAGQRLGVHLHTEARARHAWQLTQGATVLGLFRVTPEIPAGLGGGGSGGGGREGPELSPDDPAGLLDLRQGMFAQLVAQNVLLIDGPLSWYSDPGLAGVSLTGGLSYKEDTKELVVAKAGVYYVFFQLELRRVVAGEGSGSVSLALHLQPLRSAAGAAALALTVDLPPASSEARNSAFGFQGRLLHLSAGQRLGVHLHTEARARHAWQLTQGATVLGLFRVTPEIPAGLGGGGSGGGGRTVAAPSVFIFPPSDEQLKSGTASVVCLLNNFYPREAKVQWKVDNALQSGNSQESVTEQDSKDSTYSLSSTLTLSKADYEKHKVYACEVTHQGLSSPVTKSFNRGE[in this place human IgG1 Fc with changes]
chain 2: B2 chain 2

In this test the target is human 4-1BB (human, UniProt Q07011). In words: FACS. (Flow cytometry measures light scatter and fluorescence of single cells or particles in a stream.)
Chain of UniProt Q07011 (Q07011 24-186): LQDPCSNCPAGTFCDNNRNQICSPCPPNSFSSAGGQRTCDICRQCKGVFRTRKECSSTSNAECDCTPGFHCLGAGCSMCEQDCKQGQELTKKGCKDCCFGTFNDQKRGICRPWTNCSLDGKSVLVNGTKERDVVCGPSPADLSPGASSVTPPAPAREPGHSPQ
Molecule B1 had an EC50 of 1.89 nM.

In the case of B2, the EC50 turned out to be 0.51 nM.

As to B3, the EC50 amounted to 0.45 nM.

For the molecule B4, the EC50 is 0.29 nM.

In turn, B5 displayed an EC50 of 0.27 nM.
